# Measured values as given in the supplement of paper PMC8728848.
# The list shows a part of the results.
# Key:
# Test in all cases: glycan array binding signal (z-score within array); higher = stronger binding
# Details in all cases: glycan notation: IUPAC condensed, linker removed
# Neu5Ac(a2-3)Gal(b1-4)Glc = target: Neu5Ac(a2-3)Gal(b1-4)Glc
# Method in brief: (§1)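 Glycan array data were curated from 3228 arrays in the Consortium for Functional Glycomics database and kept only where the protein sequence was available. Glycan names were converted to IUPAC-condensed notation, and columns mapping to the same glycan were averaged. The binding signal is a within-array Z-score, averaged across arrays of the same protein sequence at different concentrations or buffers and across linkers. Negative Z-scores can be read as non-binding.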
# [1] = target: Neu5Ac(a2-3)Gal(b1-4)GlcNAc
# Method in brief: as §1
# [2] = target: Neu5Ac(a2-3)Gal(b1-4)GlcNAc(b1-2)Man
# Method in brief: as §1
# [3] = target: Neu5Ac(a2-3)Gal(b1-4)GlcNAc(b1-2)Man(a1-3)[GlcNAc(b1-4)][Neu5Ac(a2-3)Gal(b1-4)GlcNAc(b1-2)Man(a1-6)]Man(b1-4)GlcNAc(b1-4)GlcNAc
# Method in brief: as §1
# [4] = target: Neu5Ac(a2-3)Gal(b1-4)GlcNAc(b1-2)Man(a1-3)[Neu5Ac(a2-3)Gal(b1-4)GlcNAc(b1-2)Man(a1-6)]Man(b1-4)GlcNAc(b1-4)GlcNAc
# Method in brief: as §1
# [5] = target: Neu5Ac(a2-3)Gal(b1-4)GlcNAc(b1-2)Man(a1-3)[Neu5Ac(a2-3)Gal(b1-4)GlcNAc(b1-2)Man(a1-6)]Man(b1-4)GlcNAc(b1-4)[Fuc(a1-6)]GlcNAc
# Method in brief: as §1
# [6] = target: Neu5Ac(a2-3)Gal(b1-4)GlcNAc(b1-2)Man(a1-3)[Neu5Ac(a2-6)Gal(b1-4)GlcNAc(b1-2)Man(a1-6)]Man(b1-4)GlcNAc(b1-4)GlcNAc
# Method in brief: as §1
# [7] = target: Neu5Ac(a2-3)Gal(b1-4)GlcNAc(b1-2)[Neu5Ac(a2-3)Gal(b1-4)GlcNAc(b1-4)]Man(a1-3)[GlcNAc(b1-4)][Neu5Ac(a2-3)Gal(b1-4)GlcNAc(b1-2)[Neu5Ac(a2-3)Gal(b1-4)GlcNAc(b1-6)]Man(a1-6)]Man(b1-4)GlcNAc(b1-4)GlcNAc
# Method in brief: as §1
# [8] = target: Neu5Ac(a2-3)Gal(b1-4)GlcNAc(b1-2)[Neu5Ac(a2-3)Gal(b1-4)GlcNAc(b1-4)]Man(a1-3)[GlcNAc(b1-4)][Neu5Ac(a2-3)Gal(b1-4)GlcNAc(b1-4)Man(a1-6)]Man(b1-4)GlcNAc(b1-4)GlcNAc
# Method in brief: as §1
# [9] = target: Neu5Ac(a2-3)Gal(b1-4)GlcNAc(b1-2)[Neu5Ac(a2-3)Gal(b1-4)GlcNAc(b1-6)]Man(a1-6)[Neu5Ac(a2-3)Gal(b1-4)GlcNAc(b1-2)Man(a1-3)]Man(b1-4)GlcNAc(b1-4)GlcNAc
# Method in brief: as §1
# [10] = target: Neu5Ac(a2-3)Gal(b1-4)GlcNAc(b1-2)[Neu5Ac(a2-3)Gal(b1-4)GlcNAc(b1-6)]Man(a1-6)[Neu5Ac(a2-3)Gal(b1-4)GlcNAc(b1-2)Man(a1-3)][GlcNAc(b1-4)]Man(b1-4)GlcNAc(b1-4)GlcNAc
# Method in brief: as §1
# [11] = target: Neu5Ac(a2-3)Gal(b1-4)GlcNAc(b1-3)Gal
# Method in brief: as §1
# [12] = target: Neu5Ac(a2-3)Gal(b1-4)GlcNAc(b1-3)Gal(b1-3)GlcNAc
# Method in brief: as §1
# [13] = target: Neu5Ac(a2-3)Gal(b1-4)GlcNAc(b1-3)Gal(b1-4)GlcNAc
# Method in brief: as §1
# [14] = target: Neu5Ac(a2-3)Gal(b1-4)GlcNAc(b1-3)Gal(b1-4)GlcNAc(b1-2)Man(a1-3)[Neu5Ac(a2-3)Gal(b1-4)GlcNAc(b1-3)Gal(b1-4)GlcNAc(b1-2)Man(a1-6)]Man(b1-4)GlcNAc(b1-4)GlcNAc
# Method in brief: as §1
# [15] = target: Neu5Ac(a2-3)Gal(b1-4)GlcNAc(b1-3)Gal(b1-4)GlcNAc(b1-3)Gal(b1-4)GlcNAc
# Method in brief: as §1
# [16] = target: Neu5Ac(a2-3)Gal(b1-4)GlcNAc(b1-3)Gal(b1-4)GlcNAc(b1-3)Gal(b1-4)GlcNAc(b1-2)Man(a1-3)[Neu5Ac(a2-3)Gal(b1-4)GlcNAc(b1-3)Gal(b1-4)GlcNAc(b1-3)Gal(b1-4)GlcNAc(b1-2)Man(a1-6)]GalNAc
# Method in brief: as §1
# [17] = target: Neu5Ac(a2-3)Gal(b1-4)GlcNAc(b1-3)Gal(b1-4)GlcNAc(b1-3)GalNAc
# Method in brief: as §1
# [18] = target: Neu5Ac(a2-3)Gal(b1-4)GlcNAc(b1-3)Gal(b1-4)GlcNAc(b1-3)[Neu5Ac(a2-3)Gal(b1-4)GlcNAc(b1-3)Gal(b1-4)GlcNAc(b1-6)]GalNAc
# Method in brief: as §1
# [19] = target: Neu5Ac(a2-3)Gal(b1-4)GlcNAc(b1-3)Gal(b1-4)GlcNAc(b1-6)[Gal(b1-3)]GalNAc
# Method in brief: as §1
# [20] = target: Neu5Ac(a2-3)Gal(b1-4)GlcNAc(b1-3)Gal(b1-4)[Fuc(a1-3)]GlcNAc
# Method in brief: as §1
# [21] = target: Neu5Ac(a2-3)Gal(b1-4)GlcNAc(b1-3)GalNAc
# Method in brief: as §1
# [22] = target: Neu5Ac(a2-3)Gal(b1-4)GlcNAc(b1-3)[Neu5Ac(a2-3)Gal(b1-4)GlcNAc(b1-6)]GalNAc
# Method in brief: as §1
# [23] = target: Neu5Ac(a2-3)Gal(b1-4)GlcNAc(b1-6)GalNAc
# Method in brief: as §1
# [24] = target: Neu5Ac(a2-3)Gal(b1-4)GlcNAc(b1-6)[Gal(b1-3)]GalNAc
# Method in brief: as §1
# [25] = target: Neu5Ac(a2-3)Gal(b1-4)GlcNAc(b1-6)[Neu5Ac(a2-3)Gal(b1-3)]GalNAc
# Method in brief: as §1
# [26] = target: Neu5Ac(a2-3)Gal(b1-4)GlcNAc6S
# Method in brief: as §1
# [27] = target: Neu5Ac(a2-3)Gal(b1-4)[Fuc(a1-3)]GlcNAc
# Method in brief: as §1
# [28] = target: Neu5Ac(a2-3)Gal(b1-4)[Fuc(a1-3)]GlcNAc(b1-2)Man
# Method in brief: as §1
# [29] = target: Neu5Ac(a2-3)Gal(b1-4)[Fuc(a1-3)]GlcNAc(b1-3)Gal
# Method in brief: as §1
# [30] = target: Neu5Ac(a2-3)Gal(b1-4)[Fuc(a1-3)]GlcNAc(b1-3)Gal(b1-4)GlcNAc
# Method in brief: as §1
# [31] = target: Neu5Ac(a2-3)Gal(b1-4)[Fuc(a1-3)]GlcNAc(b1-3)Gal(b1-4)[Fuc(a1-3)]GlcNAc(b1-3)Gal(b1-4)[Fuc(a1-3)]GlcNAc
# Method in brief: as §1
# [32] = target: Neu5Ac(a2-3)Gal(b1-4)[Fuc(a1-3)]GlcNAc(b1-3)GalNAc
# Method in brief: as §1
# [33] = target: Neu5Ac(a2-3)Gal(b1-4)[Fuc(a1-3)]GlcNAc(b1-6)[Gal(b1-3)]GalNAc
# Method in brief: as §1
# [34] = target: Neu5Ac(a2-3)Gal(b1-4)[Fuc(a1-3)]GlcNAc(b1-6)[Neu5Ac(a2-3)Gal(b1-3)]GalNAc
# Method in brief: as §1
# [35] = target: Neu5Ac(a2-3)Gal(b1-4)[Fuc(a1-3)]GlcNAc6S
# Method in brief: as §1
# [36] = target: Neu5Ac(a2-3)Gal6S(b1-4)GlcNAc
# Method in brief: as §1
# [37] = target: Neu5Ac(a2-3)Gal6S(b1-4)[Fuc(a1-3)]GlcNAc
# Method in brief: as §1
binder,measurement,setting,value
SP8524D-bot-399-27-399 (Bacteroides ovatus) (protein) DAKYDTLDTHAYIEEALSSTSQKVTVQATGESFTTLNVHLSNLSSTDNHYKLVTDQSVLDTYNHINGTGYIMLPKDYYTLPETITVKAGQYAADALSIALKAFSQEMMKSGESYALPVKLVLQDGSISPMENTGTFVILAESIIEFSAPMFVGAPSLKANKFTESPETYSQYTIEVRFQVANTADRDRAVFKNGGDDANFILLRFEDPQSDNENYKAHSLVQIVGRNRLYLNPSNSFKPNEWQHLALVCDGSNYRLYINGVDSGVLSIPTGATTFSDVNWFCLGDDSYSRWGNCKILMSEARIWSVVRSASQIQNNMTQVSPKSVGLEAYWRFNEGQGNVFEDATGKGHTLTTSATPTWIDGILSTDKSTEWK,glycan array binding signal (z-score),Neu5Ac(a2-3)Gal(b1-4)Glc,0.259
same,glycan array binding signal (z-score),[1],-0.297
same,glycan array binding signal (z-score),[2],0.064
same,glycan array binding signal (z-score),[3],-0.305
same,glycan array binding signal (z-score),[4],-0.238
same,glycan array binding signal (z-score),[5],-0.357
same,glycan array binding signal (z-score),[6],-0.574
same,glycan array binding signal (z-score),[7],-0.648
same,glycan array binding signal (z-score),[8],-0.014
same,glycan array binding signal (z-score),[9],0.013
same,glycan array binding signal (z-score),[10],0.088
same,glycan array binding signal (z-score),[11],-0.252
same,glycan array binding signal (z-score),[12],0.167
same,glycan array binding signal (z-score),[13],0.179
same,glycan array binding signal (z-score),[14],-0.319
same,glycan array binding signal (z-score),[15],-0.182
same,glycan array binding signal (z-score),[16],0.421
same,glycan array binding signal (z-score),[17],0.139
same,glycan array binding signal (z-score),[18],-0.1
same,glycan array binding signal (z-score),[19],-0.302
same,glycan array binding signal (z-score),[20],-0.349
same,glycan array binding signal (z-score),[21],0.237
same,glycan array binding signal (z-score),[22],-0.17
same,glycan array binding signal (z-score),[23],-0.302
same,glycan array binding signal (z-score),[24],-0.279
same,glycan array binding signal (z-score),[25],-0.033
same,glycan array binding signal (z-score),[26],-0.046
same,glycan array binding signal (z-score),[27],-0.144
same,glycan array binding signal (z-score),[28],-0.261
same,glycan array binding signal (z-score),[29],-0.297
same,glycan array binding signal (z-score),[30],0.136
same,glycan array binding signal (z-score),[31],-0.407
same,glycan array binding signal (z-score),[32],0.96
same,glycan array binding signal (z-score),[33],0.604
same,glycan array binding signal (z-score),[34],-0.141
same,glycan array binding signal (z-score),[35],0.336
same,glycan array binding signal (z-score),[36],-0.272
same,glycan array binding signal (z-score),[37],-0.221
